Test results as given in the RNAGym collection of RNA variant scans (doi:10.7554/elife.90254).
The source gives no read counts; variants with many changes may rest on few reads.

B1: OR4K15 (parent)
chain: GUUAACGGUCAUAGGCCAUGGAAACUAGGAGCACCAUUUCGCUGCCAGUGAAGAAAUGAACAAAGAAAAUCUGGGCCAGGCAGGCAUCAAAAGAAAUAGUCUUGCGCUCAACCAGAAAGUCUGUAAUCAUUUUAAGGGUA

Variants of: B1
Assay: self-cleavage, relative activity (ratio to wild type); higher = more cleavage; in vitro, sequencing; the parent is a self-cleaving ribozyme

Variant	self-cleavage
U39A U70C A78C A82G A117U	0.05
U38C U97C A134G	0.86
U38C A67U A78U	0.52
U39C A52G A64G U108C	0.02
U39A C77U A114G U124C U132A	1.08
U39C A54G A64G	0.63
U39C U72A A140G	0.43
U39C A62G G75A U100A	0.09
U38C U43C A56G U132G	1.02
U38C G84A A95G	2.73
U38A A68G U72A U102C A135U	0.12
U39C A51G A96G U100C	2.32
U39C A60G A92G A116G U122C	0.23
U39C U49C A52G A56C A62U A86G G93U A129G	0.82
U39C A47U U100C	2.1
U39A G44A A54C	0.94
U38C U87A A95G C105A A117U	0
U39C A54G A82U A90G A92G A140G	0.21
U38C A116C U139C	0.15
U38C A52C A90G A92G	0.81
U39C A63G A78G A94U U97C A110G	0.03
U38A U72C A94G A111G	0.01
U38C U57C G74A A94G A114G	0.07
U38C U57G A78U	0.27

Variant	self-cleavage
U38C A63G A64G	1.42
U38C A62G U70C	1.16
U39C A60G A91G U102A U108C A111U	0.01
U38C A69G G136A	1.21
U39C A78G A92G	0.24
U38C A56G A117G	0.7
U39C A91G U108C U130C	0.02
U38G A51G A55G A62G	0.71
U38C U87C A140U	2.15
U39C U43C U49G A111G	0.08
U39C U43C A54U C101A	0.12
U38C A62U C128A	1.15
U39C A47C A96G G138A	1.91
U38C A52G U72A	0.44
U38C A52G A67G A96G U103C	1.36
U39A C40U A52G A63G A118G	2.1
U38C A63U A125G	0.59
U39C U122A U127C U131C	1.02
U39C A96G U97C	0.82
U39C A59G U87C	0.14
U39C A51G A55G G73A	0.24
U38C A56G A64G U70C	0.54
U38C A56G A69G U131A G136A	1.18
U39C A55G U70C U87C A95G	1.01

Variant	self-cleavage
U38C A89G U132C	1.52
U38C A51U G115A A118G	0.37
U39C G58A A59G C112U	0.01
U38C U87C U132C	2.11
U38C C40A A90G A92G U120C A126G	0.13
U38C U49C A78U A95U U108C	0.01
U39C A78U U132G	0.19
U38C A51G A116G A117G U122C	0.07
U39C U122C U127A	1.45
U38C U70C A90G	1.21
U39A A78C U124C	0.07
U39A A64G U70C	0.98
U39A A63U U108C A116G A117G G136A	0
U39C A56G A126G	1.1
U38A U100C U102C	1.47
U39C A117U U122C	0.84
U38G A55G A98G	1.5
U39C A59G U131C	0.89
U38C A47U A86C A111U	0.03
U39C A67G U133C	1.65
U39A A51G A86U A126G	0.53
U38C A63G A96G A116U	0.54
C40U A82G A90C	0.15
U39C A94G U97C	1.36

Variant	self-cleavage
U39A A67G A96G	1.98
U38C A51U A89G A91G	1.27
U38C A118G U132C	2.12
U39C A78G A129U	0.14
U38C A55G U132C	1.95
U39A A63G A82U	0.18
U39A U43C U57A U72C	0.2
C40U A67G A89G	1.78
U38A A62G U87A	1.81
U38A G41A A95G A125U U132C	1.58
U39C C46U A66G	1.2
U39C U72G A118G	0.26
U39A A68G G83U	0.99
U38C U49C A66G A68G G74U A111G	0.06
U39C U70C A94G A116G	1.56
U38C U87C U139C	0.84
U38C U87C U139A	1.98
U38C U72A U132C	0.29
U39A U72C A95G	0.16
U38C U57C A110U A129C	0.7
U38C A125G A140G	0.97
U39A U72A A89G	0.38
U38C A59G G123A	2.03
U39C A86G U102C A110G	0.24

Variant	self-cleavage
U39A A51G A116U U120A	0.1
U38A U57C A94G U103A A117G U120A U131C	0.36
U39A A47U U57A U124A	0.27
U38C A68G A82G	0.37
U39A A116G A117U A126G	0.56
U38C A51G A52G U131A	0.95
U38A U49C U87C U103C	0.85
U38C U57A A68G U108C A114G	0
U39C A90G U120C	0.46
U38C G79A A86U U103C	0.02
C40A A59G A89U	1.72
U39C A63U A82G	0.63
U39C A54G A60U A117G U127C	1.24
U39C A66G U103C	0.7
G41A A68G A111U	0.11
U38C A54U A98G A110G	0.05
U39C A63U A94G A96G A116G	1.02
U38C A51G A63G U130G	1.75
U39A A111G A117G	0.02
G41A A63G U97C	1.35
U38C U43A U72C U100C	0.52
U38A A68G U102C	2.15
U38C A55G U100C	1.4
U39C G41A A95G	2.32

Variant	self-cleavage
U38C A54G A62G A94G A95G U108C	0.01
U39C A54G A111G A140G	0.01
U38C A67G A69G	1.64
U39C A82G A92U	0.43
C40U A67G A114U	0.23
G41A A54G U100C	2.7
U38C A59G A126G	0.34
U39A A56G A78U	0.18
U38C G41U U57C	2.83
U38C A56G U97C	1.71
U38C A95G U122C	1.86
C40U A47U A67U U72C U108A	0.01
U39C U72C A116G	0.23
U38C A52U U127C U131C	0.51
U39C U57C U127C	0.99
U38C A89G A92G A94G	2.37
U39C C71U A94G	0.36
U39A U49C A135G	0.46
U39C A67U A98G U102C U130C	2.8
U39C A47G A92G U130C U131C	0.1
G41A A54G U57C A62U A63U U103C U108C	0.01
U39C G50U A117G G123A	2.02
U38C A59G U120C	0.26
U39C A55G U72A A86U A96G	0.2

Variant	self-cleavage
U39C U57C A126G A140U	0.24
U38C A59G A68U	0.85
U38A C105U G137A	0.24
U39C A96G A110U U130C	0.28
U39C A66G A94G	1.64
U39C A47G U57C	1.41
U38C A55G A96G	0.97
U39C A54G A82G A118C	0.18
U39C A55G A116G	1.05
U38C A66G U100C	2.54
U38C A55G A56G A117U A126C	0.67
C40U A51U A62G	1.1
U39C A86G A98G A110U U122C G138U	0.18
C40U A96G A126G	1.3
U39C A54G A55U A56U	1.06
U38C C105U U108A	0.03
U39G A52G A94U U108C	0.01
U38C A82G U108A	0.04
U38A A78G U120A	0.26
U38C A86G A94G	0.68
U39C A51G A62G U122C	1.87
U39C U57A A62G G74U A118G	0.07
U38C U72C A116U	0.08
